According to the supplement of paper PMC11417369:
This is one part of the list.

These sequences were tested on PfSIP2 AP2 domain 1 (GST-tagged) (assay: gcPBM binding intensity (ln(normalized median fluorescence intensity)); higher = stronger DNA binding).
Method in brief: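 Using an Agilent 4 × 180k array, primer-extended double-stranded 36-bp intergenic genomic probes and negative controls were exposed for 1 h to GST-fused P. falciparum DNA-binding domains expressed in E. coli. Binding was carried out in 1× PBS with 1% milk, 0.2 mg/ml BSA, 0.5% salmon testes DNA and 0.03% Triton X-100, and protein was detected with Alexa488 anti-GST antibody and a 488 nm scan. Binding intensity is the highest Masliner-normalised natural-log median intensity across replicate spots of either probe orientation.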

Sequence	gcPBM binding intensity (ln)
ATATATATATATATATGTACATATTATTAATAATAT [XGTACX_site6667]	9.4
GTATAATATGAACACACACACACACCCAAAAAAAAA [CACACA_site5152]	7.35
TTATGGAACCCCATTCGTACATAAATATTTTATATA [XGTACX_site7112]	6.73
ATACATATTAACAAGGTGCAAATGGATTTCATAAAA [GTGCAC_site9775]	10.7
TTTTTTTTTTTGTGAGTGCACGTATGAAGAGAAAAA	10.8
TGAAACCATAAAGAATGTACACAGCGGTATAAGTTA [XGTACX_site674]	6.87
TTAATATATTTAAATATATATAAAATATATAATATG [CACACA_negctrl_site880]	6.89
AATAAAATAAGAAGCACACAAATATTATATATAAAA [CACACA_site3980]	6.78
TTTTAAATAATACATACATGCATATATACACATATA [TGCATGCA_site8]	6.99
TTTTGGAATTTTAGCTGTACTTTTCCTATTTTGTAT [XGTACX_site7679]	6.81
TTCTTTTCTTCTACATGTACAAATATTATATATATA [XGTACX_site2996]	8.04
TATATAACTGTCTTCACACACACATATAAATAAATA [CACACA_site7317]	7.28
TATTTCACAACTTGTCGTACATTAATTGTATTATTT [XGTACX_site997]	7.08
ATTATTATTAATAGTACACACTATGGCATTTCAATA [CACACA_site5388]	7.02
TTAGGTGTATATAATTGTACATTTTGGAAATTATAC [XGTACX_site5492]	7.08
ATCTTTCATCTACCAAGTACAAATTACTTTTTTTTT [XGTACX_site7001]	7.08
TCTTATTTAAAAATAGCACACATTATGTATATATAT [CACACA_site2822]	7.51
AGCTCGGAAAAATTAGCATGCAAAAAAAAAAAAAAA [TGCATGCA_site658]	6.99
TATTTTAATTATAAATTTAAAAAAAAAAAGAAAAAA [CACACA_negctrl_site1674]	6.93

Sequence	gcPBM binding intensity (ln)
TGCTTATATATACGTGCACACATATATATAAGATAT [CACACA_site8516]	9.74
CTGGAGGATGAAAAAAGTACAAAAGGAGGAAATGTA [XGTACX_site8846]	6.96
AGCTCATGCAGGTGTACACAAAAAGAAAAAAAATAA [CACACA_site4828]	7.46
AAAACAAATATATTAACACACAAACATATAAACAAA [CACACA_site6052]	7.03
ATAAATAATGTTGACACACACAATAATCTTATTATG [CACACA_site3593]	7.01
ATGTCCTCAATGTTTACACACTCTTTTATATAAGTT [CACACA_site1460]	7.34
CCCCATATAATGAACACACACACTCCTCATAATTAA [CACACA_site628]	7.15
TATTAATTTATATCAACACACAAAATCAATATACTT [CACACA_site1757]	6.95
TTCTATATTTTAGCTGATAATATTATGAGCTTCACT [XGTACX_negctrl_site427]	6.81
AACATAAATATATATAGTACATATATATATATTCAA [XGTACX_site7287]	7.06
AAGGAATAATATAAAACACACACATAAATATAAATA [CACACA_site9115]	6.91
ATATAGATCAGACACACACACATGTTTTAAAACTAT [CACACA_site6186]	7.16
CGAAATATTATGTACGCACACACATTTTTAATATAT [CACACA_site3852]	7.34
AATATATGGTATAATTGTACAAAAAAAAAAAAAAAA [XGTACX_site1476]	7.08
TCTTTAATGAACAAATGTACAAGAACAATACCCGCA [XGTACX_site2047]	7.1
CTTTAACCTTTTTATTGTACTTTTAATATTTTAAAA [XGTACX_site4457]	7.39
GTGAAATGGAAAAAAAGTACAGATTACATAAGTATT [XGTACX_site6355]	7.39
AGTTTAGAATTTAATACACACAAAAAAAAAAAATTA [CACACA_site7698]	6.99
AACGTTCAATTTAAATGTACAAATGTATTTAAATAT [XGTACX_site315]	6.87

Sequence	gcPBM binding intensity (ln)
AAATACAAAATTGTTACACACATATTAAGTATGACA [CACACA_site4421]	6.87
TTTCTTTTTTCATTTACACACAATAATATAAGAATA [CACACA_site3164]	7.28
TACACAAATATATATATATATATATATATATATATA [XGTACX_negctrl_site305]	9.89
TATTACACATATTATACACACATATATTATATATAT [CACACA_site4951]	7.88
TAACATATTTTTAATACACACTTAAAAAAGTACTTA [CACACA_site4875]	6.95
TTAAATTGAATTAGTTAACACACAACTTTTATTTCA [CACACA_site8921]	6.65
TCTTCATACGACTAAAAAACATTAGACTGATAAAAA [CACACA_negctrl_site628]	7
TTGTGTTTTACATATACATGCAAATTTTTTTTTTTA [TGCATGCA_site303]	6.75
TAAATCATTTCATGGCATTTACACAAAATTTTTTAA [CACACA_negctrl_site1260]	6.82
TATAGCATAAATATGTGTACATATTTATATGATATT [XGTACX_site6333]	7
TATATATAATATTATACACACATATATGCATAATAT [CACACA_site54]	7.31
TATTTATTTATATAAACACACATAAATATAAATATA [CACACA_site6653]	6.97
ATATATATTTAAAAAAGTACAGAAGAAAATAACCCA [XGTACX_site642]	7.5
TATTAATAAAACCGTTGTACTACATACATAAATATT [XGTACX_site5578]	6.94
CATTATATGATTTATGTGCACATTCATTTATTTTAA	8.5
AAAAATCAATTAGAAGAACACACGTAAATTTTTTTT [CACACA_site2396]	6.73
ATACTATATATATAAGTGCATGTTCATTATACCTAA	8.28
ATATATATTATGTGTGTGCACTTTTGTTATTATTAT	10.4
ATAACTAAATGATATTGTACAAAATAATTATATATT [XGTACX_site1331]	7
